Out of some 310,000 compounds screened, about 2,200 (0.71%) showed an effect of 50% or more. Effects have a minus sign here. This is one part of the list.
The compounds below were run against human ether-à-go-go-related gene (hERG) potassium channel (human, UniProt Q12809) (assay: primary screen, population patch clamp on CHO cells stably expressing hERG).
Sequence of human ether-à-go-go-related gene (hERG) potassium channel (Q12809 whole entry, looked up): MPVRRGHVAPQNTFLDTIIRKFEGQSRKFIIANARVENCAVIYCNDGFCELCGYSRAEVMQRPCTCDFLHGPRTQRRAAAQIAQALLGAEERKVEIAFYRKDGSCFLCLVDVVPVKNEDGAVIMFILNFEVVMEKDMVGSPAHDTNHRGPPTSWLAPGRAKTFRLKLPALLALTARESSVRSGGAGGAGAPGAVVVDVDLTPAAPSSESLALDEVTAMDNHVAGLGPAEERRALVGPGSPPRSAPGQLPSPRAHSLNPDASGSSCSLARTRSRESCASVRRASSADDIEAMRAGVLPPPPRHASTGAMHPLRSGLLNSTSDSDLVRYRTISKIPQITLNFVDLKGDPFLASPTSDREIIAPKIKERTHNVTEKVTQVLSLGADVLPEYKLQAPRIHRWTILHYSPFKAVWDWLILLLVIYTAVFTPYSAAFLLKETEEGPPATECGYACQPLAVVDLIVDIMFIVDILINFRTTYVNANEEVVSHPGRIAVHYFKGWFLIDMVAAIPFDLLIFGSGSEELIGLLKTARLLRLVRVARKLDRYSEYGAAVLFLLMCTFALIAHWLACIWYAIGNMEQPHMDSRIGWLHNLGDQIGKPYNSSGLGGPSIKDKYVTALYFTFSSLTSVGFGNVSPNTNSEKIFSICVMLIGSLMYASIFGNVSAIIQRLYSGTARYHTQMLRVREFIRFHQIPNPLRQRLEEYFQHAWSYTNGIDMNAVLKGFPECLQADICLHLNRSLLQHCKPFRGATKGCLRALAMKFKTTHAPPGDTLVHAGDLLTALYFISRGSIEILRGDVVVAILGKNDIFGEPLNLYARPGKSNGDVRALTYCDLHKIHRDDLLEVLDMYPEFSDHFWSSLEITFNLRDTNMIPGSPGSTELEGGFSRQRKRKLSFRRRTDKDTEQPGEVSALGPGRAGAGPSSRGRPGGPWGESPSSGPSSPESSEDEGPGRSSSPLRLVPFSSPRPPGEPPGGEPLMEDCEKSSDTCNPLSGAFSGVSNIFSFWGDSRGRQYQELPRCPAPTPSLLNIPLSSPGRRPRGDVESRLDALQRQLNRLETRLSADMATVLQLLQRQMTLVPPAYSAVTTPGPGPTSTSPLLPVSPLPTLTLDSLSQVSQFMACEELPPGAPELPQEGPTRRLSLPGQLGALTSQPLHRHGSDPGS

Row | SMILES | hERG current change (%, negative = inhibition) at 1uM
1 | COC(=O)CCCC(=O)N1CCC(CCC(=O)NC2CC2)CC1 | 12.6%
2 | CN(C)c1ccc(C2C=C(c3ccc(Cl)cc3OC(F)F)Nc3ncnn32)cc1 (stereo not shown) | -7.44%
3 | COc1ccc(-c2nc(CN(Cc3cnn(C)c3)C(C)C)c(C)o2)c(OC)c1 | -3.49%
4 | Cc1cccc(NC(=O)C2CCN(C(=O)c3ccc(Cl)cc3)CC2)n1 | -14.1%
5 | COc1ccccc1N1C(=O)C2C3CC(c4ccccc4)C(C3)C2C1=O (stereo not shown) | 12%
6 | Cc1oc(-c2cccc(Cl)c2)nc1CN1CCCC(C(=O)NC(C)c2ccc3c(c2)OCCO3)C1 (stereo not shown) | -4.26%
7 | COc1cccc(-n2cc(CNCc3cn(C)nc3-c3ccccc3F)cn2)c1 | -6.41%
8 | Cn1c(SCC(=O)N2CCCCCC2)nnc1-c1ccco1 | 15.7%
9 | CCN(N=Nc1cccc([N+](=O)[O-])c1)c1cccc([N+](=O)[O-])c1 | -0.554%
10 | COc1ccc2sc(-c3ccccc3OC)c(-c3ccc(O)cc3)c2c1 | 12.8%
11 | CCOCCn1c(=NC(=O)CSCC(=O)Nc2cc(C)on2)sc2cc(OC)ccc21 | 3.46%
12 | CC(C)(C)C(=O)Nc1ccc(Cc2ccncc2)cc1 | 12.9%
13 | CCOc1ccc(Nc2nc3c(C)cccc3cc2C#N)cc1 | 8.21%
14 | CC(C)C(NC(=O)c1ccco1)C(=O)OCc1cc([N+](=O)[O-])cc2c1OCOC2 (stereo not shown) | 5.55%
15 | O=C(CCN1CCN(CCO)CC1)Nc1cccc(Br)c1 | 0.678%
16 | Cc1ccc(OCCN(C)C(=O)C2CCC(=O)N(Cc3ccccc3F)C2)cc1 (stereo not shown) | 0.888%
17 | Cc1ccc(C)c(/C(O)=C2\C(=O)C(=O)N(Cc3cccnc3)C2c2cccnc2)c1 (stereo not shown) | -9.76%
18 | CS(=O)(=O)N1CCC(C(=O)Nc2c(F)cccc2F)CC1 | 2.59%
19 | Cc1cccc(NC(=O)Cn2nnc(-c3ccc(CN4CCCC4)cc3)n2)c1C | -5.42%
20 | COc1ccc(N2C(=O)CC(C3CCCO3)C2=O)cc1 (stereo not shown) | 19.4%
21 | COC(=O)CCc1sc(Nc2ccc(Br)cc2)nc1-c1ccc(OC)cc1 | -0.416%
22 | Cc1c(C(=O)NCCN2CCOCC2)oc2ccc(Br)cc12 | 6.82%

Row | SMILES | hERG current change (%, negative = inhibition) at 1uM
23 | Cc1cccc(C(=O)NCC(=O)Nc2ccc(S(=O)(=O)Nc3nc(C)cc(C)n3)cc2)c1 | 12%
24 | CC(NC(=O)C1CCC(=O)N1Cc1ccccc1Cl)c1ccccc1 (stereo not shown) | 12.1%
25 | O=C(Nc1ccn(Cc2ccccc2)n1)c1cccc(Cn2cc([N+](=O)[O-])cn2)c1 | 12%
26 | CC(C)(C)C(=O)Nc1ccc(N=Nc2ccccc2)cc1 | 8.4%
27 | CN(C)c1ccc(N2CC(C)(C)C2=O)cc1 | 10.4%
28 | OCCNc1c2ccccc2nc2c(F)c(F)c(F)c(F)c12 | 14.2%
29 | C=CCNC(=O)/C(C#N)=C/c1c(C)nn(-c2ccccc2)c1Cl | -1.68%
30 | O=C(O)/C=C\C(=O)Nc1ccccc1N1CCN(c2ccccc2)CC1 | 12.7%
31 | CCC1SC(=Nc2cccc(C)c2)NC1=O (stereo not shown) | 12%
32 | C=C1C(=O)O[C@H]2[C@H]1[C@@H](O)CC(=C)[C@@H]1CC(=O)[C@@H](C)[C@H]21 | 14%
33 | CCc1ccc(S(=O)(=O)Nc2ccc(Cl)cn2)cc1 | 15%
34 | CN(Cc1ccccc1)CC(O)COc1ccc(CNCc2cc3ccccc3s2)cc1 (stereo not shown) | -4.6%
35 | COc1cc2cc(C(C)(C)O)oc(=O)c2cc1OC | 12.9%
36 | Cc1cc(C)n2nc(C(=O)N3CCCC(Nc4ccc(F)c(F)c4)C3)cc2n1 (stereo not shown) | 4.71%
37 | c1ccc(Oc2ccc(-c3ccnc4nc(N5CCN(c6ccccc6)CC5)nn34)cc2)cc1 | 8.46%
38 | N#CCSc1ccccc1NC(=O)COC(=O)CCN1C(=O)C2CC=CCC2C1=O (stereo not shown) | 5.69%
39 | COc1ccc(-c2nnc(SCC(=O)NCCc3ccc(S(N)(=O)=O)cc3)o2)cc1OC | 14.8%
40 | CSc1ccccc1-n1nnnc1SCC(=O)Nc1ccccc1C | -9.11%
41 | CN(C)CCOc1cccc(Cl)c1.O=C(O)C(=O)O | 2%
42 | Cc1[nH]nc(SCC(=O)N2CCC(C)CC2)c1[N+](=O)[O-] | 11.6%
43 | CCC(=O)NCCCNc1nc2c(C)cccc2cc1C#N | 11.2%
44 | CC1CCC(NC(=O)C2CCN(c3c4c(nc5ncnn35)CCC4)CC2)CC1 (stereo not shown) | 10.8%

Row | SMILES | hERG current change (%, negative = inhibition) at 1uM
45 | COc1ccc(-n2nc(C(=O)NCC(=O)NC3CCCCCC3)c3ccccc3c2=O)cc1OC | -3.82%
46 | N#Cc1c2c(nc(N)c1-c1ccccc1)CCCCC2 | 11.1%
47 | Cc1cccc(Nc2cc(=O)[nH]c(=O)[nH]2)c1 | 11.9%
48 | Cc1cc(OCC(=O)NCC(C)C)cc(C)c1Br | 10.6%
49 | CCCCn1c(SCC(=O)N2CC(C)CC(C)C2)nc2cc(S(N)(=O)=O)ccc21 (stereo not shown) | 8.72%
50 | CC(C)Oc1ccc2c3c(c(=O)oc2c1)CCC3 | -12.9%
51 | COc1ccccc1-c1c(C)nn2c(N3CCOCC3)cc(C)nc12 | 0.407%
52 | CCOC(=O)C1=C(C)N(CCCC(=O)O)C(=O)NC1c1cccc(OC)c1 (stereo not shown) | 8.36%
53 | Cc1ccc(NC(=O)Cn2c(-c3ccc(F)cc3)cnc2SCC(=O)Nc2c(C)cccc2C)cc1 | 12.1%
54 | O=C(COC(=O)CCSc1ccccc1)Nc1ccc(F)cc1Cl | 7.08%
55 | CCCc1cnc(N2CCN(C(=O)c3c(-c4ccccc4)noc3C)CC2)nc1 | 6.99%
56 | O/N=C(/c1ccccc1)c1cc2cc(Br)cc(Br)c2o1 | 12%
57 | O=C1NC2NC(=O)N(C(Cc3ccccc3)C(=O)O)C2N1 (stereo not shown) | -5.43%
58 | CCn1c(-c2ccc(OC)c(OC)c2)n[nH]c1=S | 14.2%
59 | CC(C)C[C@H](NC(=O)c1nc[nH]c1C(=O)NCC(=O)OCc1ccccc1)C(=O)OC(C)(C)C | -2.66%
60 | Cc1ccc2c(c1)CCCN2C(=O)c1ccc2c(c1)OCO2 | 14.6%
61 | Cc1cc(C(=O)COC(=O)c2ccncc2)c(C)n1CCc1ccc(F)cc1 | 6.81%
62 | O=C(c1nn2c(C(F)(F)F)cc(-c3ccccc3)nc2c1Cl)N1CCOCC1 | 8.79%
63 | CCN(CC)CCCNC(=O)c1sc2ncn(CC(=O)Nc3ccc(C)c(Cl)c3)c(=O)c2c1C | 9.82%
64 | Cc1nc2ccc(NC(=O)NCc3ccco3)cc2s1 | 20.1%
65 | CCNC(=S)NNC(=O)c1ccoc1C | 5.98%
66 | CCC(=NCCN1CCOCC1)c1c(O)n(-c2ccccc2C)c(=O)[nH]c1=O | 9.31%

Row | SMILES | hERG current change (%, negative = inhibition) at 1uM
67 | CC(=O)N1CCc2[nH]c3ccc(C)cc3c2C1 | 4.86%
68 | COC(=O)C1=NN(C(C)=O)C2(CC(=O)N(c3cc(C)cc(C)c3)C2=O)C1 (stereo not shown) | -6.56%
69 | Cc1cc(=O)oc2cc(OC(=O)c3ccccc3)ccc12 | 18.6%
70 | Nc1nc(C(=O)N2CCOCC2)nn1C(=O)c1ccc(Cl)cc1 | 7.53%
71 | Cc1onc(-c2ccccc2)c1C(=O)OCc1nnc(-c2ccc([N+](=O)[O-])cc2)o1 | -51.2%
72 | CCN(CC(=O)NCc1ccc(Cl)cc1)C(=O)NCc1ccc(Cl)cc1 | -54.1%
73 | COc1cc(-c2nnc(COc3ccc4ccccc4c3)o2)cc(OC)c1OC | 9.34%
74 | CNC(=O)COC(=O)/C=C/c1ccco1 | 5.71%
75 | Cc1ccc(NC(=O)COc2coc(CN3CCN(Cc4ccccc4)CC3)cc2=O)cc1 | -44.4%
76 | CCOC(=O)C1=C(CS(=O)(=O)c2ccc(C)cc2)NC(=O)NC1c1cc(OC)c(OC)c(OC)c1 (stereo not shown) | 3.43%
77 | CN(CCc1cnn(C)c1)Cc1cn(C)nc1-c1ccccc1F | 0.587%
78 | O=C(CCn1cnc2ccccc21)N/N=C/c1ccc(O)cc1 | 11.5%
79 | O=C(Nc1ccccc1F)c1ccc2nc(N3C(=O)CCC3=O)sc2c1 | 13.2%
80 | Cc1ccc(C)c(-c2nnc(NC(=O)Cc3ccccc3)o2)c1 | 11.1%
81 | COCCNc1nnc(SCC(=O)c2ccc3c(c2)OCO3)s1 | 2.85%
82 | Cc1c(Cl)c([N+](=O)[O-])nn1CC(=O)N1CCN(C23CC4CC(CC(C4)C2)C3)CC1 | 11.3%
83 | COc1ccc(N2C(=O)CCC(C(=O)c3ccccc3)=C2C)cc1 | 2.53%
84 | COc1ccc(NC(=O)N2CCC(C(=O)c3ccc4c(c3)OCCO4)CC2)cc1 | 10%
85 | COc1ccc(N2CCN(C(c3cc4cc(C)ccc4[nH]c3=O)c3nnnn3Cc3ccccc3)CC2)cc1 (stereo not shown) | 8.29%
86 | O=C(NCc1ccc2c(c1)OCO2)C(=O)NCC(c1ccco1)N1CCN(c2ccccc2)CC1 (stereo not shown) | 13.3%
87 | COc1ccc(NC(=O)CSc2nc3ccccc3nc2N2CCCC2)c(OC)c1 | 15.5%
88 | Cc1cc(C)cc(NC(=O)COC(=O)c2n[nH]c3ccccc23)c1 | 4.52%
